Some of the results follow. Sequences were assembled here from the parent chain. Values near 0.05 are background.
B1: TEV protease; numbered along this chain (parent)
chain: MGESLFKGPRDYNPISSSICHLTNESDGHTTSLYGIGFGPFIITNKHLFRRNNGTLVVQSLHGVFKVKDTTTLQQHLVDGRDMIIIRMPKDFPPFPQKLKFREPQREERICLVTTNFQTKSMSSMVSDTSCTFPSGDGIFWKHWIQTKDGQCGSPLVSTRDGFIVGIHSASNFTNTNNYFTSVPKNFMELLTNQEAQQWVSGWRLNADSVLWGGHKVFMVKPEEPFQPVKEATQL

Variants of: B1
Assay: raw area under fraction-flipped curve 0-4 h after induction (AUC4h, not background-subtracted), DNA-recorder readout of cleavage of the substrate (dimensionless); higher = more cleavage of the substrate by the protease variant
Settings: temperature: 34 °C; time window: 0-4 h after rhamnose induction
Experimental: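 In vivo DNA recorder in E. coli TOP10(DE3) ΔrhaA at 34 °C. Each TEVp single-site mutant (parent TEVp 0) is paired with a single-site variant of the 7-mer TEVs (canonical ENLYFQ|S). The substrate sits between flexible linkers in a Bxb1-sfGFP-TEVs-SsrA fusion, so cleavage stabilises Bxb1 and speeds flipping of a recombination array, read by NGS. The value is the raw area under the fraction-flipped curve over 0-4 h after rhamnose induction (AUC4h), with ≥20 reads per time point. It is not background-subtracted; inactive controls average about 0.047.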
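Further: Bxb1 expression induced with 0.2% (w/v) L-rhamnose at OD600 near 0.5, cultures sampled hourly, flipped fraction per protease–substrate barcode pair counted by paired-end Illumina sequencing.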

Row | Variant | area with substrate ENLYAQS | area with substrate ENLYDQS | area with substrate ENLYHQS | area with substrate ENLYIQS | area with substrate ENLYKQS | area with substrate ENLYNQS | area with substrate ENLYPQS | area with substrate ENLYQQS | area with substrate ENLYRQS | area with substrate ENLYSQS | area with substrate ENLYWQS | area with substrate ENLYYQS | area with substrate ENLYGQS | area with substrate ENLYVQS | area with substrate ENLYCQS | area with substrate ENLYEQS | area with substrate ENLYMQS | area with substrate ENLYTQS | area with substrate ENLYLQS
1 | MGESLFKGPRDYNPISSSICHLTNESDGHTTSLYGIGFGPFIITNKHLFRRNNGTLVVQSLHGVFKVKDTTTLQQHLVDGRDMIIIRMPKDFPPFPQKLKFREPQREENICLVTTNFQTKSMSSMVSDTSCTFPSGDGIFWKHWIQTKDGQCGSPLVSTRDGFIVGIHSASNFTNTNNYFTSVPKNFMELLTNQEAQQWVSGWRLNADSVLWGGHKVFMVKPEEPFQPVKEATQL [R109N] | 0.0484 | 0.0961 | 0.0732 | 0.0908 | 0.0549 | 0.0722 | 0.0542 | 0.0543 | 0.0381 | 0.0692 | 0.0709 | 0.0694 |  |  |  |  |  |  | 
2 | MGESLFKGPRDYNPISSSICHLTNESDGHTTSLYGIGFGPFIITNKHLFRRNNGTLVVQSLHGVFKVKDTTTLQQHLVDGRDMIIIRMPKDFPPFPQKLKFREPQREERICLVSTNFQTKSMSSMVSDTSCTFPSGDGIFWKHWIQTKDGQCGSPLVSTRDGFIVGIHSASNFTNTNNYFTSVPKNFMELLTNQEAQQWVSGWRLNADSVLWGGHKVFMVKPEEPFQPVKEATQL [T114S] | 0.073 |  |  |  | 0.0632 | 0.0617 | 0.0747 | 0.0507 | 0.072 | 0.0746 | 0.0721 |  | 0.07 | 0.136 |  |  |  |  | 
3 | MGESLFKGPRDYNPISSSICHLTNESDGHTTSLYGIGFGPFIITNKHLFRRNNGTLVVQSLHGVFKVKDTTTLQQHLVDGRDMIIIRMPKDFPPFPQKLKFREPQREERICLVGTNFQTKSMSSMVSDTSCTFPSGDGIFWKHWIQTKDGQCGSPLVSTRDGFIVGIHSASNFTNTNNYFTSVPKNFMELLTNQEAQQWVSGWRLNADSVLWGGHKVFMVKPEEPFQPVKEATQL [T114G] | 0.0624 | 0.0362 | 0.0682 | 0.162 |  | 0.0716 |  | 0.0811 | 0.0678 |  | 0.0752 |  | 0.0818 | 0.0984 | 0.109 | 0.0677 | 0.0784 |  | 
4 | MGESLFKGPRDYNPISSSICHLTNESDGHTTSLYGIGFGPFIITNKHLFRRNNGTLVVQSLHGVFKVKDTTTLQQHLVDGRDMIIIRMPKDFPPFPQKLKFREPQREERICLVTTNFQTKSMSSFVSDTSCTFPSGDGIFWKHWIQTKDGQCGSPLVSTRDGFIVGIHSASNFTNTNNYFTSVPKNFMELLTNQEAQQWVSGWRLNADSVLWGGHKVFMVKPEEPFQPVKEATQL [M125F] | 0.0751 | 0.0522 | 0.094 | 0.139 | 0.0394 | 0.0619 | 0.0884 | 0.0702 | 0.0887 | 0.068 | 0.0778 |  | 0.0778 |  | 0.0743 | 0.0923 | 0.0745 |  | 
5 | MGESLFKGPRDYNPISSSICHLTNESDGHTTSLYGIGFGPFIITNKHLFRRNNGTLVVQSLHGVFKVKDTTTLQQHLVDGRDMIIIRMPKDFPPFPQKLKFREPQREERICLVTTNIQTKSMSSMVSDTSCTFPSGDGIFWKHWIQTKDGQCGSPLVSTRDGFIVGIHSASNFTNTNNYFTSVPKNFMELLTNQEAQQWVSGWRLNADSVLWGGHKVFMVKPEEPFQPVKEATQL [F117I] | 0.0951 |  |  | 0.0986 | 0.055 |  |  | 0.0728 | 0.061 | 0.0784 |  |  | 0.0672 |  | 0.109 | 0.0516 | 0.0999 | 0.0608 | 
6 | MGESLFKGPRDYNPISSSICHLTNESDGHTTSLYGIGFGPFIITNKHLFRRNNGTLVVQSLHGVFKVKDTTTLQQHLVDGRDMIIIRMPKDFPPFPQKLKFREPQREERICLVTTNFQTKSMSSMVRDTSCTFPSGDGIFWKHWIQTKDGQCGSPLVSTRDGFIVGIHSASNFTNTNNYFTSVPKNFMELLTNQEAQQWVSGWRLNADSVLWGGHKVFMVKPEEPFQPVKEATQL [S127R] | 0.0565 |  | 0.0785 | 0.111 | 0.0922 | 0.0762 | 0.0729 | 0.0743 |  | 0.0742 |  |  | 0.0461 |  |  | 0.0801 | 0.138 | 0.0751 | 0.0761
7 | MGESLFKGPRDYNPISSSICHLTNESDGHTTSLYGIGFGPFIITNKHLFRRNNGTLVVQSLHGVFKVKDTTTLQQHLVDGRDMIIIRMPKDFPPFPQKLKFREPQREERICLVTTNFQTKSMSSMVNDTSCTFPSGDGIFWKHWIQTKDGQCGSPLVSTRDGFIVGIHSASNFTNTNNYFTSVPKNFMELLTNQEAQQWVSGWRLNADSVLWGGHKVFMVKPEEPFQPVKEATQL [S127N] | 0.0716 | 0.0731 | 0.0651 |  | 0.0684 | 0.0878 | 0.0868 |  | 0.0606 | 0.0719 | 0.087 | 0.0775 |  |  |  | 0.072 | 0.111 |  | 0.132
8 | MGESLFKGPRDYNPISSSICHLTNESDGHTTSLYGIGFGPFIITNKHLFRRNNGTLVVQSLHGVFKVKDTTTLQQHLVDGRDMIIIRMPKDFPPFPQKLKFREPQREERICLVTTNFQTKSMSSMVSDTSCTFPTGDGIFWKHWIQTKDGQCGSPLVSTRDGFIVGIHSASNFTNTNNYFTSVPKNFMELLTNQEAQQWVSGWRLNADSVLWGGHKVFMVKPEEPFQPVKEATQL [S135T] | 0.0721 |  | 0.0603 |  | 0.0628 | 0.0633 | 0.055 | 0.0474 | 0.0583 |  | 0.06 | 0.0583 | 0.0632 | 0.0959 |  | 0.0781 | 0.0669 |  | 0.0712
9 | MGESLFKGPRDYNPISSSICHLTNESDGHTTSLYGIGFGPFIITNKHLFRRNNGTLVVQSLHGVFKVKDTTTLQQHLVDGRDMIIIRMPKDFPPFPQKLKFREPQREERICLVTTNFQTKSMSSMVSDTSCTFMSGDGIFWKHWIQTKDGQCGSPLVSTRDGFIVGIHSASNFTNTNNYFTSVPKNFMELLTNQEAQQWVSGWRLNADSVLWGGHKVFMVKPEEPFQPVKEATQL [P134M] | 0.0415 | 0.0548 | 0.0675 | 0.0993 |  |  | 0.0778 |  |  | 0.0696 | 0.0764 |  |  | 0.0931 |  | 0.0608 |  | 0.0575 | 
